Results on ten molecules are retold here after PubChem BioAssay (NCATS).

Assay [1] in a line: qHTS for Inhibitors of the Functional Ribonucleoprotein Complex (vRNP) of Lymphocytic Choriomeningitis Arenaviruses (LCMV): Viability assay - alamar blue signal for LCMV Primary Screen (AID 1347085; calls by dose curve; tested in HEK293 reporter line; further: nearly all actives have a fitted effect of over 80% in size; further: potency means the concentration at half of the fitted maximal effect). In general terms: qHTS replaces the single test concentration by a dilution series.
Assay [2] concerns the target Nucleoprotein (Lymphocytic choriomeningitis virus (strain Armstrong)) (UniProt P09992). As to the kind of experiment: qHTS for Inhibitors of the Functional Ribonucleoprotein Complex (vRNP) of Lymphocytic Choriomeningitis Arenaviruses (LCMV): LCMV Primary Screen - GLuc reporter signal (AID 1347086). Further: nearly all actives have a fitted effect of over 70% in size. Further: potency means the concentration at half of the fitted maximal effect.
Assay [3] is described as follows: qHTS for Inhibitors of the Functional Ribonucleoprotein Complex (vRNP) of Lassa (LASV) Arenavirus: Viability assay - alamar blue signal for LASV Primary Screen (AID 1347083; calls by dose curve; tested in HEK293 reporter line; further: nearly all actives have a fitted effect of over 80% in size; further: potency means the concentration at half of the fitted maximal effect).
Assay [4] in a line: qHTS profiling for inhibitors of Plasmodium falciparum proliferation (AID 504749; active means well fitted curve in the direction sought with a large enough effect; an effect the other way counts as inactive or inconclusive;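 further: 0% = DMSO vehicle and full inhibition = artemisinin control; nearly all actives have a fitted effect of over 60% in size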). The following applies: P. falciparum in erythrocytes, SYBR Green DNA, 72 h, parasite line A; at 28.7 µM (top of the series). A digest of the protocol: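 SYBR Green fluorescence of parasite DNA, read after lysis and overnight dark incubation, measured growth over 72 h in erythrocyte culture at 0.3% parasitemia and 2.5% hematocrit. Data normalised to DMSO and 0.29 uM artemisinin, with plate-drift correction.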

The nature of assay [5]: qHTS of pediatric cancer cell lines to identify multiple opportunities for drug repurposing: Primary screen for SK-N-SH cells (AID 1347098; active means well fitted curve in the direction sought with a large enough effect; an effect the other way counts as inactive or inconclusive; further: nearly all actives have a fitted effect of over 65% in size; further: potency means the concentration at half of the fitted maximal effect). A digest of the protocol: (§1)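 Cells (500-1,000/well) rested 5 h, then received compounds for 48 h; metabolically active cells were measured by CellTiter-Glo luminescence. Final concentrations spanned up to 46 µM (MIPE, 11-point) or 0.59 nM-46 µM (NPC, 8-point) in primary screens, 11-point in follow-ups.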

Assay [6] can be described thus: qHTS of pediatric cancer cell lines to identify multiple opportunities for drug repurposing: Primary screen for BT-12 cells (AID 1347101; active means well fitted curve in the direction sought with a large enough effect; an effect the other way counts as inactive or inconclusive; further: nearly all actives have a fitted effect of over 25% in size; further: potency means the concentration at half of the fitted maximal effect). A digest of the protocol: as §1

Records with an inconclusive call do not appear. Unless noted, the call rests on the fitted dose curve. Some entries of the source have several records that differ or are many. This list holds those alone. An entry can have further records. Results that share an entry are repeated measurements in other runs, samples, wells, individuals or studies. Marks in square brackets tell the records apart. The letters are not those of the source and start again with each entry. More than one record can exist for a structure, and the calls need not agree.

Chain of UniProt P09992 (P09992 whole entry, looked up): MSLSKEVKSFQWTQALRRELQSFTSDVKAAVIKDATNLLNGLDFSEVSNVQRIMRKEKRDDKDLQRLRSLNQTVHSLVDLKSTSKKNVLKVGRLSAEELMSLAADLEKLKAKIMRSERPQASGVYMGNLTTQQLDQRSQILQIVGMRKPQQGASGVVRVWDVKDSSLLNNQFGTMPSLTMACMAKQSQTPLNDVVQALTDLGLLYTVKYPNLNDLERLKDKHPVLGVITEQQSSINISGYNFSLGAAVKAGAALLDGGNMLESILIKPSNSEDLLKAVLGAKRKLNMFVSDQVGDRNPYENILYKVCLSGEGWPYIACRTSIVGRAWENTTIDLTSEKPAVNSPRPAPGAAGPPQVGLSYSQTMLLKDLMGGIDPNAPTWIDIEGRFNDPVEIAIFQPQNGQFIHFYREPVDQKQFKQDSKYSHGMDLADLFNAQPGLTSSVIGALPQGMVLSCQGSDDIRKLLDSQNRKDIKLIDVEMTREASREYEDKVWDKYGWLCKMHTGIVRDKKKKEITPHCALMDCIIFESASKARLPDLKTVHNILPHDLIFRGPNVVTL

With `CC(C(=O)O)c1ccc2c(c1)CC(=O)c1ccccc1S2` (centres undefined), the Potency result in assay [1] is “active: 4.32 µM [sample A] and inactive [sample B]”; in assay [2] it was “active: 5.44 µM [sample A] and inactive [sample B]”.

`NC(=O)c1cnccn1`: the Potency result in assay [2] is “inactive [sample A] and inactive [sample B] and active: 19.3 µM [sample C]”.

In the case of `O=C(NCC1CCCCN1)c1cc(OCC(F)(F)F)ccc1OCC(F)(F)F` (centres undefined), the Potency result in assay [3] is “active: 30.6 µM [sample A] and inactive [sample B]”; in assay [1], “active: 13.7 µM [sample A] and inactive [sample B]”.

Consider `Nc1ncn([C@H]2C[C@H](O)[C@@H](CO)O2)c(=O)n1`, for which the Potency result was “inactive [sample A] and active: 6.85 µM [sample B]” in assay [3]; “inactive [sample A] and active: 21.7 µM [sample B]” in assay [1].

As for `Nc1nc2ccc(OC(F)(F)F)cc2s1`, the Potency entry in assay [1] was “inactive [sample A] and active: 4.32 µM [sample B] and inactive [sample C]”.

Consider `Nc1cc(C(Cl)=C(Cl)Cl)c(S(N)(=O)=O)cc1S(N)(=O)=O`, for which the Potency entry in assay [1] was “active: 7.69 µM [sample A] and inactive [sample B]”.

With `CC(C)Cc1ccc(C(C)C(=O)O)cc1` (centres undefined), in assay [1], the Potency result was “inactive [sample A] and inactive [sample B] and active: 10.6 µM [sample C]”.

Turning to `CN1C(=O)NC(=O)C(C)(C2=CCCCC2)C1=O` (centres undefined), the activity, negative = inhibition result in assay [4] was “inactive: -10.6% [sample A] and inactive: 1.13% [sample B]”.

For the molecule `CC(C)c1cccc(C(C)C)c1O`, the Potency result is “active: 7.64 µM [sample A] and inactive [sample B]” in assay [5]; “active: 385 nM [sample A] and inactive [sample B]” in assay [6].

`Cc1ncc([N+](=O)[O-])n1CC(C)O` (centres undefined): the Potency entry in assay [2] was “inactive [sample A] and active: 21.7 µM [sample B]”.
